Data from the supplement of paper PMC11880418.
Where a name gives a salt, the structure may show the parent alone. The list shows a part of the results. The data scatter; read single values as rough.

Tested on: MKN45
Assay: ALDHbr (CSC) cell proportion score relative to DMSO vehicle (ratio to DMSO); breast (SUM159) / gastric (MKN45) / pancreatic (PANC1) / colon cancer lines; ALDHbr cells have high ALDH activity and are rich in cancer stem cells (CSC); higher = more CSC (ALDHbr) cells remaining
Conditions: 10 µM; 72 h
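Further: High-content imaging of ALDEFLUOR-stained cells with Hoechst-labelled nuclei in 384-well plates, triplicate wells, scored as Z-score against 0.1% DMSO vehicle, negative meaning fewer ALDHbr cells.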

Compound | ALDHbr
Clc1ccc2c(c1)CCc1cccnc1C2=C1CCNCC1 [Desloratadine] | 1.18
COc1ccc2c(c1)c(CC(=O)OCC(=O)O)c(C)n2C(=O)c1ccc(Cl)cc1 [Acemetacin] | 0.957
CCCc1nn(C)c2c(=O)[nH]c(-c3cc(S(=O)(=O)N4CCN(C)CC4)ccc3OCC)nc12 [Sildenafil] | 0.852
CCOC(=O)C1=C(C)NC(C)=C(C(=O)OC)C1c1cccc([N+](=O)[O-])c1 (stereo not drawn) [Nitrendipine] | 0.951
Cc1[nH]cnc1CN1CCc2c(c3ccccc3n2C)C1=O [Alosetron hydrochloride] | 1.29
CO/N=C1\CN(c2nc3c(cc2F)c(=O)c(C(=O)O)cn3C2CC2)CC1CN (stereo not drawn) [Gemifloxacin mesylate] | 0.866
CC(C(=O)O)c1ccc(C(=O)c2cccs2)cc1 (stereo not drawn) [Suprofen] | 0.984
Nc1ccc(C(=O)O)c(O)c1 [4-aminosalicylic acid] | 1.09
C[C@H]1[C@H](NC(=O)/C(=N\OC(C)(C)C(=O)O)c2csc(N)n2)C(=O)N1S(=O)(=O)O [Aztreonam] | 1.12
COC(=O)C1=C(C)NC(C)=C(C(=O)OC2CCCN(Cc3ccccc3)C2)C1c1cccc([N+](=O)[O-])c1 (stereo not drawn) [Benidipine hydrochloride] | 0.77
C[N+](C)(CCOc1ccccc1)Cc1ccccc1.O=C([O-])c1cc2ccccc2cc1O [Bephenium hydroxynaphthoate] | 0.939
O=c1cc(-c2ccc(O)c(O)c2)oc2cc(O)cc(O)c12 [Luteolin] | 0.704
CN(C)CCOC(c1ccccc1)c1ccccc1.Cn1c(=O)c2[nH]c(Cl)nc2n(C)c1=O [Dimenhydrinate] | 1.07
